This is an account of results in the supplement of paper PMC12217912.

To fix the notation:
B1: TEV protease; numbered along this chain (parent)
chain: MGESLFKGPRDYNPISSSICHLTNESDGHTTSLYGIGFGPFIITNKHLFRRNNGTLVVQSLHGVFKVKDTTTLQQHLVDGRDMIIIRMPKDFPPFPQKLKFREPQREERICLVTTNFQTKSMSSMVSDTSCTFPSGDGIFWKHWIQTKDGQCGSPLVSTRDGFIVGIHSASNFTNTNNYFTSVPKNFMELLTNQEAQQWVSGWRLNADSVLWGGHKVFMVKPEEPFQPVKEATQL

Variants of B1 are the subject of the test. Kind of test: raw area under fraction-flipped curve 0-4 h after induction (AUC4h, not background-subtracted), DNA-recorder readout of cleavage of the substrate (dimensionless); higher = more cleavage of the substrate by the protease variant. The following applies: temperature: 34 °C; time window: 0-4 h after rhamnose induction. As for the experimental part:
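In vivo DNA recorder in E. coli TOP10(DE3) ΔrhaA at 34 °C. Each TEVp single-site mutant (parent TEVp 0) is paired with a single-site variant of the 7-mer TEVs (canonical ENLYFQ|S). The substrate sits between flexible linkers in a Bxb1-sfGFP-TEVs-SsrA fusion, so cleavage stabilises Bxb1 and speeds flipping of a recombination array, read by NGS. The value is the raw area under the fraction-flipped curve over 0-4 h after rhamnose induction (AUC4h), with ≥20 reads per time point. It is not background-subtracted; inactive controls average about 0.047.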

The list shows a part of the results. The full chains were built here from the parent and the listed change. Inactive controls read about 0.05.
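Also: Bxb1 expression induced with 0.2% (w/v) L-rhamnose at OD600 near 0.5, cultures sampled hourly, flipped fraction per protease–substrate barcode pair counted by paired-end Illumina sequencing.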

MGESLFKGPRDYNPISSSICHLTNESDGHTTSLYGIGFGPFIITNIHLFRRNNGTLVVQSLHGVFKVKDTTTLQQHLVDGRDMIIIRMPKDFPPFPQKLKFREPQREERICLVTTNFQTKSMSSMVSDTSCTFPSGDGIFWKHWIQTKDGQCGSPLVSTRDGFIVGIHSASNFTNTNNYFTSVPKNFMELLTNQEAQQWVSGWRLNADSVLWGGHKVFMVKPEEPFQPVKEATQL [K46I]: the “area with substrate ENAYFQS” value came out at 0.0536, the “area with substrate ENCYFQS” value worked out at 0.0557, the “area with substrate ENDYFQS” value came to 0.0683 and the “area with substrate ENEYFQS” value is 0.063. Further, the “area with substrate ENFYFQS” value is 0.0564, the “area with substrate ENGYFQS” value was determined as 0.0669, the “area with substrate ENHYFQS” value is 0.0749 and the “area with substrate ENKYFQS” value came out at 0.0573. Besides, the “area with substrate ENMYFQS” value is 0.0529, the “area with substrate ENPYFQS” value is 0.0673, the “area with substrate ENQYFQS” value worked out at 0.0602 and the “area with substrate ENRYFQS” value came out at 0.0489. Moreover, the “area with substrate ENSYFQS” value is 0.0606, the “area with substrate ENTYFQS” value turned out to be 0.0331 and the “area with substrate ENWYFQS” value was found to be 0.0432.

As to MGESLFKGPRDYNPISSSICHLTNESDGHTTSLYGIGFGPFIITNWHLFRRNNGTLVVQSLHGVFKVKDTTTLQQHLVDGRDMIIIRMPKDFPPFPQKLKFREPQREERICLVTTNFQTKSMSSMVSDTSCTFPSGDGIFWKHWIQTKDGQCGSPLVSTRDGFIVGIHSASNFTNTNNYFTSVPKNFMELLTNQEAQQWVSGWRLNADSVLWGGHKVFMVKPEEPFQPVKEATQL [K46W], the “area with substrate ENAYFQS” value was 0.0552, the “area with substrate ENCYFQS” value was determined as 0.0523, the “area with substrate ENDYFQS” value was found to be 0.0537 and the “area with substrate ENEYFQS” value is 0.0627. The “area with substrate ENFYFQS” value was 0.0545, the “area with substrate ENGYFQS” value worked out at 0.077, the “area with substrate ENHYFQS” value amounted to 0.053 and the “area with substrate ENIYFQS” value was found to be 0.055. Further, the “area with substrate ENKYFQS” value came out at 0.0497, the “area with substrate ENMYFQS” value came to 0.0544, the “area with substrate ENPYFQS” value stood at 0.0579 and the “area with substrate ENQYFQS” value came to 0.0554. The “area with substrate ENRYFQS” value amounted to 0.0696, the “area with substrate ENSYFQS” value was 0.0564, the “area with substrate ENTYFQS” value is 0.0527 and the “area with substrate ENVYFQS” value was determined as 0.0605. In addition, the “area with substrate ENYYFQS” value is 0.0562.

In the case of MGESLFKGPRDYNPISSSICHLTNESDGHTTSLYGIGFGPFIITNKMLFRRNNGTLVVQSLHGVFKVKDTTTLQQHLVDGRDMIIIRMPKDFPPFPQKLKFREPQREERICLVTTNFQTKSMSSMVSDTSCTFPSGDGIFWKHWIQTKDGQCGSPLVSTRDGFIVGIHSASNFTNTNNYFTSVPKNFMELLTNQEAQQWVSGWRLNADSVLWGGHKVFMVKPEEPFQPVKEATQL [H47M], the “area with substrate ENAYFQS” value amounted to 0.057, the “area with substrate ENCYFQS” value came to 0.0578, the “area with substrate ENDYFQS” value was 0.0589 and the “area with substrate ENEYFQS” value was found to be 0.0491. The “area with substrate ENFYFQS” value was 0.0524, the “area with substrate ENGYFQS” value turned out to be 0.0766, the “area with substrate ENHYFQS” value is 0.0593 and the “area with substrate ENKYFQS” value is 0.0507. For the same variant, the “area with substrate ENNYFQS” value was 0.0655, the “area with substrate ENPYFQS” value came out at 0.0719, the “area with substrate ENQYFQS” value was 0.0496 and the “area with substrate ENRYFQS” value was determined as 0.0672. Moreover, the “area with substrate ENSYFQS” value is 0.0687, the “area with substrate ENTYFQS” value is 0.0564, the “area with substrate ENVYFQS” value was 0.07 and the “area with substrate ENWYFQS” value amounted to 0.0551.

Consider MGESLFKGPRDYNPISSSICHLTNESDGHTTSLYGIGFGPFIITNKPLFRRNNGTLVVQSLHGVFKVKDTTTLQQHLVDGRDMIIIRMPKDFPPFPQKLKFREPQREERICLVTTNFQTKSMSSMVSDTSCTFPSGDGIFWKHWIQTKDGQCGSPLVSTRDGFIVGIHSASNFTNTNNYFTSVPKNFMELLTNQEAQQWVSGWRLNADSVLWGGHKVFMVKPEEPFQPVKEATQL [H47P], for which the “area with substrate ENAYFQS” value came to 0.0524, the “area with substrate ENCYFQS” value was 0.0631, the “area with substrate ENDYFQS” value was 0.0714 and the “area with substrate ENFYFQS” value amounted to 0.0695. Also, the “area with substrate ENGYFQS” value was determined as 0.0691, the “area with substrate ENHYFQS” value worked out at 0.0593, the “area with substrate ENKYFQS” value was 0.059 and the “area with substrate ENNYFQS” value is 0.0596. The “area with substrate ENPYFQS” value was determined as 0.0568, the “area with substrate ENQYFQS” value came to 0.0606, the “area with substrate ENSYFQS” value was found to be 0.0665 and the “area with substrate ENVYFQS” value is 0.0692. For the same variant, the “area with substrate ENWYFQS” value amounted to 0.0482 and the “area with substrate ENYYFQS” value was determined as 0.144.

For MGESLFKGPRDYNPISSSICHLTNESDGHTTSLYGIGFGPFIITNKHLFRRNNGTLVVMSLHGVFKVKDTTTLQQHLVDGRDMIIIRMPKDFPPFPQKLKFREPQREERICLVTTNFQTKSMSSMVSDTSCTFPSGDGIFWKHWIQTKDGQCGSPLVSTRDGFIVGIHSASNFTNTNNYFTSVPKNFMELLTNQEAQQWVSGWRLNADSVLWGGHKVFMVKPEEPFQPVKEATQL [Q59M], the “area with substrate ENAYFQS” value is 0.0596, the “area with substrate ENCYFQS” value turned out to be 0.0746, the “area with substrate ENDYFQS” value was 0.0481 and the “area with substrate ENEYFQS” value was determined as 0.0522. Also, the “area with substrate ENFYFQS” value worked out at 0.0615, the “area with substrate ENGYFQS” value was determined as 0.035, the “area with substrate ENHYFQS” value came to 0.0629 and the “area with substrate ENIYFQS” value came out at 0.0824. Also, the “area with substrate ENKYFQS” value came to 0.0379, the “area with substrate ENNYFQS” value stood at 0.0542, the “area with substrate ENPYFQS” value was determined as 0.0622 and the “area with substrate ENQYFQS” value worked out at 0.0484. Moreover, the “area with substrate ENSYFQS” value amounted to 0.058, the “area with substrate ENTYFQS” value is 0.0638 and the “area with substrate ENYYFQS” value amounted to 0.0546.

Turning to MGESLFKGPRDYNPISSSICHLTNESDGHTTSLYGIGFGPFIITNKHLFRRNNGTLVVFSLHGVFKVKDTTTLQQHLVDGRDMIIIRMPKDFPPFPQKLKFREPQREERICLVTTNFQTKSMSSMVSDTSCTFPSGDGIFWKHWIQTKDGQCGSPLVSTRDGFIVGIHSASNFTNTNNYFTSVPKNFMELLTNQEAQQWVSGWRLNADSVLWGGHKVFMVKPEEPFQPVKEATQL [Q59F], the “area with substrate ENAYFQS” value is 0.0451, the “area with substrate ENCYFQS” value came to 0.0701, the “area with substrate ENEYFQS” value worked out at 0.0299 and the “area with substrate ENHYFQS” value amounted to 0.05. The “area with substrate ENIYFQS” value is 0.0841, the “area with substrate ENKYFQS” value was found to be 0.068, the “area with substrate ENNYFQS” value is 0.0855 and the “area with substrate ENQYFQS” value is 0.0917. The “area with substrate ENRYFQS” value was 0.0617, the “area with substrate ENSYFQS” value turned out to be 0.0637, the “area with substrate ENTYFQS” value turned out to be 0.0698 and the “area with substrate ENVYFQS” value is 0.0446.

Take MGESLFKGPRDYNPISSSICHLTNESDGHTTSLYGIGFGPFIITNKHLFRRNNSTLVVQSLHGVFKVKDTTTLQQHLVDGRDMIIIRMPKDFPPFPQKLKFREPQREERICLVTTNFQTKSMSSMVSDTSCTFPSGDGIFWKHWIQTKDGQCGSPLVSTRDGFIVGIHSASNFTNTNNYFTSVPKNFMELLTNQEAQQWVSGWRLNADSVLWGGHKVFMVKPEEPFQPVKEATQL [G54S]: the “area with substrate ENAYFQS” value was determined as 0.044, the “area with substrate ENCYFQS” value was 0.0725, the “area with substrate ENDYFQS” value worked out at 0.0568 and the “area with substrate ENEYFQS” value was determined as 0.0657. For the same variant, the “area with substrate ENHYFQS” value amounted to 0.054, the “area with substrate ENIYFQS” value was 0.0703, the “area with substrate ENKYFQS” value worked out at 0.0614 and the “area with substrate ENMYFQS” value stood at 0.0676. Also, the “area with substrate ENPYFQS” value came out at 0.0413, the “area with substrate ENRYFQS” value was determined as 0.0596, the “area with substrate ENSYFQS” value turned out to be 0.0571 and the “area with substrate ENTYFQS” value was determined as 0.047. In addition, the “area with substrate ENVYFQS” value amounted to 0.0599, the “area with substrate ENWYFQS” value was 0.0332 and the “area with substrate ENYYFQS” value stood at 0.0553.

Take MGESLFKGPRDYNPISSSICHLTNESDGHTTSLYGIGFGPFIIHNKHLFRRNNGTLVVQSLHGVFKVKDTTTLQQHLVDGRDMIIIRMPKDFPPFPQKLKFREPQREERICLVTTNFQTKSMSSMVSDTSCTFPSGDGIFWKHWIQTKDGQCGSPLVSTRDGFIVGIHSASNFTNTNNYFTSVPKNFMELLTNQEAQQWVSGWRLNADSVLWGGHKVFMVKPEEPFQPVKEATQL [T44H]: the “area with substrate ENAYFQS” value came to 0.0394, the “area with substrate ENCYFQS” value came to 0.059, the “area with substrate ENDYFQS” value worked out at 0.053 and the “area with substrate ENEYFQS” value worked out at 0.0589. Also, the “area with substrate ENFYFQS” value was 0.0526, the “area with substrate ENGYFQS” value worked out at 0.0491, the “area with substrate ENKYFQS” value worked out at 0.0504 and the “area with substrate ENMYFQS” value came out at 0.0458. Besides, the “area with substrate ENNYFQS” value was found to be 0.0487, the “area with substrate ENPYFQS” value is 0.0509, the “area with substrate ENQYFQS” value amounted to 0.0422 and the “area with substrate ENRYFQS” value was 0.0523. Also, the “area with substrate ENTYFQS” value was found to be 0.0475 and the “area with substrate ENVYFQS” value is 0.0466.

Consider MGESLFKGPRDYNPISSSICHLTNESDGHTTSLYGIGFGPFIITNKHLFRRDNGTLVVQSLHGVFKVKDTTTLQQHLVDGRDMIIIRMPKDFPPFPQKLKFREPQREERICLVTTNFQTKSMSSMVSDTSCTFPSGDGIFWKHWIQTKDGQCGSPLVSTRDGFIVGIHSASNFTNTNNYFTSVPKNFMELLTNQEAQQWVSGWRLNADSVLWGGHKVFMVKPEEPFQPVKEATQL [N52D], for which the “area with substrate ENAYFQS” value turned out to be 0.0643, the “area with substrate ENCYFQS” value came to 0.034, the “area with substrate ENDYFQS” value is 0.104 and the “area with substrate ENEYFQS” value amounted to 0.0635. The “area with substrate ENFYFQS” value was found to be 0.0678, the “area with substrate ENGYFQS” value is 0.0583, the “area with substrate ENHYFQS” value was 0.0663 and the “area with substrate ENIYFQS” value is 0.0689. In addition, the “area with substrate ENNYFQS” value is 0.058, the “area with substrate ENQYFQS” value is 0.0608, the “area with substrate ENRYFQS” value came to 0.0595 and the “area with substrate ENSYFQS” value came out at 0.054. The “area with substrate ENTYFQS” value was 0.057 and the “area with substrate ENVYFQS” value came to 0.0708.
